Data on 63 compounds can be found in ChEMBL document CHEMBL1201862, “PubChem BioAssay data set” (2004).

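Test compounds were applied to cells in 96-well plates for 48 hours at 5 doses. At the GI50, growth is halved.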 Activity calls are given as the source filed them. Cut-off read from the data, not from the text of the source: active = GI50 up to about 1.1 µM and inactive = higher. Bounds are passed on as bounds.

This test deals with NCI-H322M. The experiment in a line: growth of human tumour cells (NCI), 48 h.
`O=C(CCN1CCCCC1)c1csc2ccccc12`: the GI50 was inactive: > 100 µM.

Turning to `Cn1c(=O)c2nc(SCc3ccccn3)[nH]c2n(C)c1=S`, the GI50 was inactive: > 100 µM.

In the case of `N[C@H]1CCN(c2c(F)cc3c(=O)c(C(=O)O)cn4c3c2Oc2c-4ccc3c2ccc2ccccc23)C1`, the GI50 is active: 0.269 µM.

In the case of `CC(C)(CCC(C)(C)c1ccccc1)c1ccccc1`, the GI50 was inactive: 19.8 µM.

In the case of `Cc1cn(C2OC(CO)C(O)C2F)c(=O)[nH]c1=O` (stereo not drawn), the GI50 is inactive: > 100 µM.

As for `Cc1ccc(C(=O)/C=C2\Nc3c(c(=O)oc4ccccc34)N=C2NC23CC4CC(CC(C4)C2)C3)cc1`, the GI50 is inactive: > 100 µM.

On to `CC(C)(C)OC(=O)NCCNC(=O)OCc1ccccc1`, for which the GI50 is inactive: > 100 µM.

With `COC1N(C2CC(O)C(CO)O2)C(=O)NC(=O)C1(F)Br` (stereo not drawn), the GI50 is inactive: 17.1 µM.

On to `CC(C)c1cccc(C(C)C)c1NC(=O)CCC(=O)NN`, for which the GI50 was inactive: > 100 µM.

`CCOC(=O)C(=[N+]=[N-])C(=O)C[N+]12CCN(CC1)CC2`: the GI50 is inactive: > 100 µM.

As for `CC(C)=C1CCC(CN(C)C)C1=O` (stereo not drawn), the GI50 was inactive: > 100 µM.

For the compound `CC(C)(C)N1CSC(=S)N(Cc2ccco2)C1`, the GI50 was inactive: 13.2 µM.

On to `O=C(C[C@@H]1NCCC[C@H]1O)Cn1cnc2cc(Br)c(Cl)cc2c1=O`, for which the GI50 is active: 0.0208 µM.

For the compound `O=c1[nH][nH]c(=O)n1Cc1ccccc1`, the GI50 was inactive: > 100 µM.

As for `COc1cc2c(cc1OCCCCN1C(=O)c3cccc4cccc(c34)C1=O)N=C[C@@H]1CCCN1C2=O`, the GI50 was inactive: 16.2 µM.

As to `O=C1CN(c2ccc(Cl)cc2)C(=O)CN1CCN1CC(=O)N(c2ccc(Cl)cc2)CC1=O`, the GI50 is inactive: > 100 µM.

With `Oc1ccc2ccccc2c1-c1nnc(CCCCCCCCc2nnc(-c3c(O)ccc4ccccc34)o2)o1`, the GI50 was inactive: 1.88 µM.

Consider `O=c1cccccc1NCCCCCCCNc1cccccc1=O`, for which the GI50 is inactive: > 100 µM.

`CCC12C=CCN3CCC4(C(=C(C(=O)OC)C1)Nc1ccccc14)[C@H]32` (stereo partly drawn): the GI50 was inactive: 40.3 µM.

Consider `COc1cc2ccc1OCc1cccc(n1)COc1ccc(cc1OC)/C=N\CCNCC/N=C\2`, for which the GI50 is inactive: > 100 µM.

For `Cc1c(-c2coc(-c3ccc([N+](=O)[O-])cc3)n2)c(=O)n(-c2ccccc2)n1C`, the GI50 is inactive: > 100 µM.

In the case of `O=c1c2cccnc2ncn1CCN1CCCCC1`, the GI50 was inactive: > 100 µM.

Turning to `CC(=O)NCC1OC2COC(c3ccccc3)OC2C(NC(=O)c2ccccc2)C1OC(=O)c1ccccc1` (stereo not drawn), the GI50 is inactive: 64.1 µM.

Regarding `COc1ccc(/C=C2\C(=O)N(C(=O)c3ccc(NC(C)=O)cc3)N=C2C)cc1OC`, the GI50 was inactive: > 100 µM.

For `N#Cc1c(N)[nH]c(=S)c(C#N)c1-c1cccc(Cl)c1`, the GI50 is inactive: 37.9 µM.

Consider `CCOc1snc(C(Cl)(Cl)Cl)c1Cl`, for which the GI50 is inactive: 31.7 µM.

With `CC1CNC(NS(=O)(=O)c2cc(C(=O)Nc3ccc(Cl)cc3)c(Cl)cc2S)=NN1` (stereo not drawn), the GI50 is inactive: 33.2 µM.

For `CCc1ccc(Nc2ccc([N+](=O)[O-])cc2[N+](=O)[O-])cc1`, the GI50 was inactive: 33 µM.

Regarding `O=c1c(-c2c(-c3ccccc3)oc3ccc(Cl)cc3c2=O)c(-c2ccccc2)oc2ccc(Cl)cc12`, the GI50 was inactive: > 100 µM.

As for `O=C(CN1CCOCC1)c1ccc2[nH]c(=O)oc2c1`, the GI50 was inactive: > 100 µM.

Regarding `C/N=C(\N=c1/ss/c(=N\C)n1C)N(C)C.[O-][Cl+3]([O-])([O-])O`, the GI50 is inactive: > 100 µM.

As for `CCOC(C)OC1CC(n2cc(C)c(=O)[nH]c2=O)OC1CO` (stereo not drawn), the GI50 is inactive: > 100 µM.

Take `COC(=O)[C@@H]1CCCCC[C@H]2C(CO)=C(C)C(=O)C12` (stereo partly drawn): the GI50 is inactive: > 100 µM.

As to `C=CCC1(C)CCCCC1(O)C[S+]([O-])c1ccccc1` (stereo not drawn), the GI50 was inactive: > 100 µM.

As for `CCC(=O)c1cn(C)c(=O)c2ccccc12`, the GI50 is inactive: > 100 µM.

Turning to `CCOC(=O)N/N=C(\Cc1ccccc1)OCC`, the GI50 was inactive: > 100 µM.

Regarding `CC1=CC(=O)N(n2c(Cc3ccccc3)n[nH]c2=O)C1=O`, the GI50 was inactive: > 100 µM.

`CC(C)=C1C(=O)C[C@]2(C)C/C=C(\C)CC/C=C(\C)CC[C@@H]12`: the GI50 was inactive: 15.2 µM.

For `ClCCCC1COc2ccccc2O1` (stereo not drawn), the GI50 is inactive: 62.8 µM.

For `CN(C)C(=S)/N=c1\ssc(=S)n1Cc1ccccc1`, the GI50 is active: 0.508 µM.

With `Cc1cc(NC(=O)NC(=O)c2ccccc2[N+](=O)[O-])ccc1Oc1ncc(Cl)cn1`, the GI50 was active: 0.105 µM.

`CCOc1cc2c(cc1O)C=C[C@@H]1[C@@H]2CC[C@]2(C)[C@@H](O)CC[C@@H]12`: the GI50 is inactive: 3.52 µM.

On to `CCC(=O)N1C(=O)OCC1C(C)C` (stereo not drawn), for which the GI50 is inactive: > 100 µM.

With `O=C(CCC(=O)Nc1ccc(Cl)c(Cl)c1)CC(=O)c1ccc(F)cc1`, the GI50 was inactive: > 100 µM.

As to `Cc1ccccc1-c1nc2c(N)nc(N)nc2nc1N`, the GI50 is inactive: > 100 µM.

Consider `COc1ccc(/N=C(/C[S+]([O-])c2ccc(C)cc2)C(F)(F)F)cc1` (stereo not drawn), for which the GI50 was inactive: > 100 µM.

Turning to `COc1cc2cc(C(=O)N3CC(CCl)c4c3cc(NC(=O)C(C)(C)c3ccccc3[N+](=O)[O-])c3ccccc43)[nH]c2c(OC)c1OC` (stereo not drawn), the GI50 is inactive: 6.41 µM.

As to `O=C(CN1CCNCCN(CC(=O)N2CCCCC2)CCNCC1)N1CCCCC1`, the GI50 is inactive: > 100 µM.

Turning to `COc1cc(Oc2nc3ccccc3nc2C(=O)O)cc(OC)c1OC`, the GI50 is inactive: > 100 µM.

On to `FC(F)(F)c1cccc(/C=N/C23CC4CC(CC(C4)C2)C3)c1`, for which the GI50 is inactive: > 100 µM.

Turning to `O=C1C(=C2SC(c3ccccc3)(c3ccccc3)c3ccccc32)C(=O)c2ccccc21`, the GI50 is inactive: > 100 µM.

Consider `CC1Cc2c(N)nc(NN)nc2NC1=O` (stereo not drawn), for which the GI50 is inactive: > 100 µM.

As for `CCc1cccc(C)c1NC(=O)CC1Sc2ccccc2NC1=O` (stereo not drawn), the GI50 was inactive: 37.8 µM.

As for `Clc1nc(NCCc2ccccc2)c2ncn(-c3ccccc3)c2n1`, the GI50 was inactive: 33.9 µM.

For `O=[N+]([O-])c1cnc(N(CCO)CCO)s1`, the GI50 is inactive: > 100 µM.

As to `N/N=C(/CC(O)(C(F)(F)F)C(F)(F)F)c1ccccc1`, the GI50 is inactive: > 10 µM.

For the compound `COc1cccc(/N=N/C(=NNC(=O)c2ccc(C)cc2)c2ccc(N(C)C)cc2)c1`, the GI50 was inactive: 95.9 µM.

In the case of `CC1=CC(=O)NCCN1C`, the GI50 was inactive: > 100 µM.

On to `Nc1ncnc2sc(Nc3ccccc3)nc12`, for which the GI50 is inactive: > 100 µM.

In the case of `COc1cc2c(c(OC)c1)C(C)=NC(C)C2` (stereo not drawn), the GI50 is inactive: > 100 µM.

Turning to `CC(=O)OC(C[C@H](C)[C@@H]1CC[C@]2(C)C3=CCC4C(C)(C)C(=O)CC[C@]4(C)C3CCC12C)C1OC1(C)C` (stereo partly drawn), the GI50 was inactive: 19.9 µM.

`ClCC[N+]12CC[N+](CCCl)(CC1)C2`: the GI50 is inactive: > 100 µM.

On to `Cc1ccc2c(O)cc(-c3ccsc3)nc2n1`, for which the GI50 is inactive: 4.69 µM.
